Experimental data published in PMC4336329 (PLoS ONE, 2015).
Screen size: about 310,000 compounds; about 14,000 (4.5%) showed an effect of 50% or more. Effects have a minus sign here. The list shows a part of the results.

Each molecule was assayed against human ether-à-go-go-related gene (hERG) potassium channel (human, UniProt Q12809) (assay: primary screen, population patch clamp on CHO cells stably expressing hERG).
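Note: peak tail current of the secondary pulse compared with the same well before compound.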

Sequence of human ether-à-go-go-related gene (hERG) potassium channel (Q12809 whole entry, looked up): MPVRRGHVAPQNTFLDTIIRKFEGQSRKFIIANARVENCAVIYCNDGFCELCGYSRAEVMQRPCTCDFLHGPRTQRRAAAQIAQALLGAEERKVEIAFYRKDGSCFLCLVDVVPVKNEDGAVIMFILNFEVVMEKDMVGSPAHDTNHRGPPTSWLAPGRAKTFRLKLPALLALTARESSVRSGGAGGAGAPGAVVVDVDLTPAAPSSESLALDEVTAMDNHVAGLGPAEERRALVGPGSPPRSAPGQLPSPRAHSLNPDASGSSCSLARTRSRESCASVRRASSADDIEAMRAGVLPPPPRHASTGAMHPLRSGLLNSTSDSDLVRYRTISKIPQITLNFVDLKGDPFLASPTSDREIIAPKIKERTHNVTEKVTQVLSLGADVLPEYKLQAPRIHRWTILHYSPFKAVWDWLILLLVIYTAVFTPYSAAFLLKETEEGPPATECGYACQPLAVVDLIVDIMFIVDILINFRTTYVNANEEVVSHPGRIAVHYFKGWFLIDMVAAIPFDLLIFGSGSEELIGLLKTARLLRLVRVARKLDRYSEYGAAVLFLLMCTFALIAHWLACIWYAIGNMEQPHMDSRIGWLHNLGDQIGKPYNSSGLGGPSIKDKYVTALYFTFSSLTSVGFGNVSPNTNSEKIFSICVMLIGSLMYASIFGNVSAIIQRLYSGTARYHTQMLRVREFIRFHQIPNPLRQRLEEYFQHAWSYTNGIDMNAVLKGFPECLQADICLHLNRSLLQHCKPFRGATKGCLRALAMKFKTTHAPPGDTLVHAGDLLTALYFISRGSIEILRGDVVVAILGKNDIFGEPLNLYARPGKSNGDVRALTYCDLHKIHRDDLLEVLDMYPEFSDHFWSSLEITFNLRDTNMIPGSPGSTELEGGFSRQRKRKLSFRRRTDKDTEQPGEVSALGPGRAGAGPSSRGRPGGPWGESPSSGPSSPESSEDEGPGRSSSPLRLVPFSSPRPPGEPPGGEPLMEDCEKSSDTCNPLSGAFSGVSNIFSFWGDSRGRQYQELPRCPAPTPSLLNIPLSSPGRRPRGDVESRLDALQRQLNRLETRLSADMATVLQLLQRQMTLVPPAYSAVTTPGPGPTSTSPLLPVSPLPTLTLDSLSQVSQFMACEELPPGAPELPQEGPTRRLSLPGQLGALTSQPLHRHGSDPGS

| SMILES | hERG current change (%, negative = inhibition) at 10uM [%] |
| --- | --- |
| O=C(COC(=O)C1CC(=O)N(Cc2ccccc2)C1)c1ccc(Br)cc1 (centres unmarked) | -25.8 |
| C/C(=N\NC(=O)c1cccc(F)c1)c1ccc(NC(=O)Cc2ccccc2)cc1 | 11 |
| CCOC(=O)c1[nH]c(=O)[nH]c1CSc1ccccn1 | 2.05 |
| Cc1ccc(-c2ccc(C(=O)O)c(C)n2)cc1 | -0.232 |
| COc1ccccc1CNS(=O)(=O)CCNC(=O)c1ccccc1 | 7.75 |
| Cc1ccc(C)c(CN2C(=O)COc3ccccc32)c1 | 14.1 |
| Cc1ccc(C2OCC3(CO)COC(c4ccc(C)cc4)N23)cc1 (centres unmarked) | 6.28 |
| CCOc1ccc(-n2c(C)cc(/C=N/N(C)C)c2C)cc1 | 2.58 |
| Cc1ccccc1-n1nnnc1SCC(=O)NCC1(N2CCOCC2)CCCCC1 | -24.9 |
| COc1ccc(NS(=O)(=O)c2cc(C)ccc2C)cc1 | -16.4 |
| CCOc1ccccc1N(CC(=O)NCc1ccccc1)C(=O)CCC(=O)Nc1cc(C)ccn1 | -26.6 |
| Cc1cc(Cl)ccc1OCCCC(=O)Nc1ccc(S(=O)(=O)Nc2ncccn2)cc1 | 7.21 |
| Cc1ccccc1COC(=O)CCCC1=NS(=O)(=O)c2ccccc2N1 | -2.95 |
| Cc1ccccc1NC1=NC(=S)N(CC(N)=O)C12CCOC(C)(C)C2 (centres unmarked) | -0.15 |
| COC(=O)c1nn(-c2ccc(OC)cc2)c(=O)cc1O | 16.9 |
| Cc1ccc(-n2nc(C)c3c(C)c(CCC(=O)NCc4ccco4)c(C)nc32)cc1 | 1.02 |
| Cn1c(SCC(=O)c2ccccc2)nc2cccnc21 | 10.3 |
| CC1CC(C)CN(S(=O)(=O)N2CCCC(C(=O)NC(C)c3ccccc3)C2)C1 (centres unmarked) | 3.1 |
| CC(=O)c1ccc(NS(=O)(=O)c2cccc(C(=O)Nc3ccccc3C(=O)O)c2)cc1 | 17.6 |
| O=C(CNC(=O)OCc1ccccc1)Nc1ccc(Br)cc1C(=O)c1ccccc1Cl | -40.5 |
| N#Cc1c(-c2ccccc2)nc(SCC(=O)Nc2ccc(OC(F)(F)Cl)cc2)[nH]c1=O | 28.5 |
| COc1cc(/C=C2\SC(c3ccc(C)cc3)=NC2=O)ccc1O | -8.45 |

| SMILES | hERG current change (%, negative = inhibition) at 10uM [%] |
| --- | --- |
| CN(CCc1ccccc1)Cc1nc(-c2cnccn2)no1 | 22 |
| Br.N=c1n(CCN2CCCCC2)c2ccccc2n1CC(=O)c1cccc([N+](=O)[O-])c1 | -69 |
| CCOC(=O)C1C(=O)OC(C)(C)C1C(CC)C(=O)c1ccccc1 (centres unmarked) | -23.3 |
| CCCNC(=O)c1ccccc1NC(=O)Cc1ccc(OC)c(S(=O)(=O)N2CCOCC2)c1 | -30.4 |
| CC(=O)N/C(=C\c1ccccc1)C(=O)OCC(=O)N1CCCCCC1 | 1.94 |
| COc1ccc(C(=O)Oc2cc(/C=N/NS(=O)(=O)c3ccc(C)cc3)ccc2OC)cc1 | 5.96 |
| COc1ccc(NC(=S)N(CCO)Cc2ccccc2)cc1 | 2.34 |
| CC(C)C(NC(=O)c1ccc(F)cc1)C(=O)N1CCOCC1 (centres unmarked) | 0.564 |
| O=C(c1ccccc1Cl)N1CCCC(c2nc3c(nnn3Cc3ccccc3)c(=O)[nH]2)C1 (centres unmarked) | -34.6 |
| CCOc1ccccc1C(=O)N(Cc1ccco1)C1CCS(=O)(=O)C1 (centres unmarked) | 0.265 |
| O=C(c1ccco1)N1CCCC(c2nc3c(nnn3Cc3ccc(F)cc3)c(=O)[nH]2)C1 (centres unmarked) | -14.5 |
| Cc1cc2oc(C(=O)Nc3nonc3C)c(C)c2cc1C | 20.6 |
| COc1ccc(CN2CCN(S(=O)(=O)c3ccc(NC(C)=O)cc3)CC2)cc1.O=C(O)C(=O)O | -29.4 |
| Cn1c(=O)c2c(SCC(=O)NCCc3ccccc3)nc(C3CC3)nc2n(C)c1=O | 11.3 |
| Cc1ccc(-c2ccccc2NC(=O)CCl)o1 | 1.84 |
| COc1ccc(N2CCN(C(=O)C34CCC(C)(C(=O)C3)C4(C)C)CC2)cc1 (centres unmarked) | -0.453 |
| COc1cccc(-c2nc(-c3ccc(Br)o3)no2)c1 | 4.28 |
| CCN(CC)CCCNC(=O)CN1C(=O)CSc2ccc(S(=O)(=O)N3CCOCC3)cc21 | 37.1 |
| CCCS(=O)(=O)N1CCN=C1SCc1cccc(F)c1 | 6.31 |
| COc1ccccc1OCc1nnc(SCC(=O)c2cc(Cl)ccc2OC)o1 | 8.83 |
| COC(=O)c1cc(NC(=O)c2ccccc2F)cc(C(=O)OC)c1 | 19 |
| Cc1nn(-c2ccccc2)c2c1C(=O)NC(=O)C(C)(C)C2 | 5.13 |
